For this test, the system named is Lewis long tumor. The note with it: 5 mg/kg.

Regarding “N-Aminoiminomethyl-S-(1-Chloro-2-Hydroxy-Propyl)-Isothiuronium Bromide [Example 14]”, the “Decrease of number of lung metastasis” value stood at 50%.

The values above are taken from US4710578A, “Isothiuronium salts” (Peremartoni Vegyipari Vallalat, priority 1984, dated 1987).
